Results as given in a compilation of properties of binary mixtures (doi:10.1016/j.jtice.2022.104319).
The densities may have been worked out from excess volumes.

Test: xn = mol fraction of the nth substance listed
Conditions: 100 kPa

C=CC[n+]1ccn(C)c1.N#C[N-]C#N + O
mass density [kg/m3]
Conditions	288.15 K	293.15 K	298.15 K	303.15 K	308.15 K	313.15 K	318.15 K
x1 = 0.9256	–	–	1252.4	1248.8	1245.3	1241.9	1238.4
x1 = 0.9413	1260	–	1252.9	–	1245.9	1242.4	1239
x1 = 0.9556	1260.4	1256.9	1253.3	1249.8	1246.3	1242.9	1239.4
x1 = 0.9684	–	1257.2	1253.6	1250.1	–	–	1239.7
x1 = 1	–	1258.2	1254.6	1251.1	–	1244.1	–
x2 = 0.0155	1261.3	1257.7	1254.2	–	1247.2	1243.7	–
